The structures appear in SMILES notation. Screen size: about 310,000 compounds; about 14,000 (4.5%) showed an effect of 50% or more. Effects have a minus sign here. The list shows a part of the results.

The results in this text go back to paper PMC4336329 (PLoS ONE, 2015).
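Note: peak tail current of the secondary pulse compared with the same well before compound.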

Chain of human ether-à-go-go-related gene (hERG) potassium channel (Q12809 whole entry, looked up): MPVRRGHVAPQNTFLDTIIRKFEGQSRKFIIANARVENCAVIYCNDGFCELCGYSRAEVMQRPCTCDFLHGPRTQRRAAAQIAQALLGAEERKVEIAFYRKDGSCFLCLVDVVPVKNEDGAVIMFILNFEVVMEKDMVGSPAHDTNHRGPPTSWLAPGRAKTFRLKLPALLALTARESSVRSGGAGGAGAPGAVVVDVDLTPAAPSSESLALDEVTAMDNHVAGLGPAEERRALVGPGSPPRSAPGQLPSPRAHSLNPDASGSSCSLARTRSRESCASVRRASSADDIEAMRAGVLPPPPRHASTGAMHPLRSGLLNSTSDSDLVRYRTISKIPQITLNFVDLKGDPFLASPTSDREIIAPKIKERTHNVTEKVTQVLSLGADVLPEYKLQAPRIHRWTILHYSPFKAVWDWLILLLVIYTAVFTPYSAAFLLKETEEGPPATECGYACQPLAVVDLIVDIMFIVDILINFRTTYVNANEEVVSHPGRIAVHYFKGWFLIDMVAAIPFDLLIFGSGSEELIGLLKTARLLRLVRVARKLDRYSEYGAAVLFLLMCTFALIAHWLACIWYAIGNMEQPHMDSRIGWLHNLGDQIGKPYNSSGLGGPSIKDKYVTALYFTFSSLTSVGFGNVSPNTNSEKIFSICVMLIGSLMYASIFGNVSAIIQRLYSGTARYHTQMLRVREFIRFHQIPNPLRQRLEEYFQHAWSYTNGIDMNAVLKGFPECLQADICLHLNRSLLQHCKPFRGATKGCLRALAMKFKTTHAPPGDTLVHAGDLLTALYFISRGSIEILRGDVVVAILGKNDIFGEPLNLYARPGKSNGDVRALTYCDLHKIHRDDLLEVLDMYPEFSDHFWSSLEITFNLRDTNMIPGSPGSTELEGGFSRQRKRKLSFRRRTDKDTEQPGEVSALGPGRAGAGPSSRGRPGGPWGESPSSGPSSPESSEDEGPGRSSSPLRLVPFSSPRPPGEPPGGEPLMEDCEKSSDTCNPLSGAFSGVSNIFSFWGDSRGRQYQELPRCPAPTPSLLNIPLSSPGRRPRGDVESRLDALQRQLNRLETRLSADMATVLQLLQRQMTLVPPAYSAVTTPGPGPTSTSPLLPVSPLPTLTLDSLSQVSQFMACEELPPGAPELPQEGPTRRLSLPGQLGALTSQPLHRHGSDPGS

The assay concerns the target human ether-à-go-go-related gene (hERG) potassium channel (human, UniProt Q12809). Nature of the assay: primary screen, population patch clamp on CHO cells stably expressing hERG.
As to `CCOc1ccc(CCNC(=O)C2CCC(=O)N2C2CCCCC2)cc1OCC` (stereo not shown), the “hERG current change (%, negative = inhibition) at 10uM” value was -2.41%.
As to `CCC(C)NC(=O)CN1C(=O)COc2ccc(S(=O)(=O)N3CCOCC3)cc21` (stereo not shown), the “hERG current change (%, negative = inhibition) at 10uM” value is 25.8%.
Take `CCOc1ccc(CCNC(=O)CS(=O)Cc2nc(-c3ccc(C)cc3)oc2C)cc1` (stereo not shown): the “hERG current change (%, negative = inhibition) at 10uM” value turned out to be 3.18%.
For `COc1ccccc1NC(=S)NNC(=O)c1nn(C)cc1Cl`, the “hERG current change (%, negative = inhibition) at 10uM” value was found to be 9.4%.
`CCOC(=O)c1[nH]c2cc(OC)c(OC)cc2c1NC(=O)CN(C)C1CCCCC1`: the “hERG current change (%, negative = inhibition) at 10uM” value is listed as -10.5%.
On to `O=C(NC1CC1)c1cc(F)c(F)cc1Cl`, for which the “hERG current change (%, negative = inhibition) at 10uM” value is 5.79%.
`CC(C(=O)NCc1ccco1)n1cc([N+](=O)[O-])cn1` (stereo not shown): the “hERG current change (%, negative = inhibition) at 10uM” value is 13.4%.
Consider `O=C(NCN1C(=O)C2C3C=CC(C3)C2C1=O)Nc1nncs1` (stereo not shown), for which the “hERG current change (%, negative = inhibition) at 10uM” value is reported as 2.09%.
On to `C[C@H](OC(=O)n1ccnc1)[C@@H]1O[C@@]2(C)CCC[C@@H]1O2`, for which the “hERG current change (%, negative = inhibition) at 10uM” value is listed as 6.42%.
Turning to `Cc1nn(-c2cccc(C(F)(F)F)c2)c(Cl)c1/C=N/n1cnnc1`, the “hERG current change (%, negative = inhibition) at 10uM” value is -24.8%.
In the case of `O=C(COC(=O)c1cccnc1)Nc1ccc2c(c1)OCO2`, the “hERG current change (%, negative = inhibition) at 10uM” value is given as 21.1%.
`NS(=O)(=O)c1ccc(NC(=O)Nc2cccc3ccccc23)cc1`: the “hERG current change (%, negative = inhibition) at 10uM” value was found to be 17.9%.
Turning to `CC(C)(C)c1ccc(C(=O)N2CCC(C(=O)NCc3ccncc3)CC2)cc1`, the “hERG current change (%, negative = inhibition) at 10uM” value is reported as -9.85%.
For the compound `CCCCCC(=O)Nc1ccc(-c2cn3cccnc3n2)cc1`, the “hERG current change (%, negative = inhibition) at 10uM” value turned out to be 16.4%.
Consider `CCOC(=O)N/N=C(/C)c1cccc(-n2cnnn2)c1`, for which the “hERG current change (%, negative = inhibition) at 10uM” value is reported as 27.9%.
The figure for `CCC1Nc2ncnc(N3CCN(c4ccccn4)CC3)c2N(Cc2ccc(Cl)cc2)C1=O.O=C(O)C(F)(F)F` (stereo not shown) is -73.8%.
`Cc1cc(C)cc(C(=O)N2CCN(Cc3ccc4c(c3)OCO4)CC2)c1`: the “hERG current change (%, negative = inhibition) at 10uM” value is reported as -20.1%.
In the case of `CC(C)c1nc(Cl)c(C#N)c2c1CCCC2`, the “hERG current change (%, negative = inhibition) at 10uM” value was determined as 13.6%.
For the compound `Cc1cc(N(C)C)nc(SC(C)C)n1`, the “hERG current change (%, negative = inhibition) at 10uM” value is reported as 14.5%.
On to `O=C(CNc1ccccc1)Nc1cccc2ccccc12`, for which the “hERG current change (%, negative = inhibition) at 10uM” value is 3.23%.
The figure for `N=c1c2c(n(Cc3ccc(F)cc3)c3c1CCC3)CCC2` is -20.7%.
Turning to `O=C(NCc1cccs1)C(=O)NCC1OCCCN1S(=O)(=O)c1ccc(F)cc1` (stereo not shown), the “hERG current change (%, negative = inhibition) at 10uM” value was -13.4%.
For the compound `Nc1ccc(S(=O)(=O)N2CCC(Cc3ccccc3)CC2)cc1`, the “hERG current change (%, negative = inhibition) at 10uM” value stood at 13%.
`Cc1ccc(NC(=O)CCN2C(=O)NC3(CCCC3)C2=O)c(C)c1`: the “hERG current change (%, negative = inhibition) at 10uM” value was determined as 2.74%.
As to `COc1ccc(-c2sc3ccc(OC)cc3c2C#Cc2ccccn2)cc1`, the “hERG current change (%, negative = inhibition) at 10uM” value is given as 13.5%.
For the compound `COc1ccc(NC(=O)c2cc(-c3ccccc3)nc3c2cnn3C(C)C)cc1`, the “hERG current change (%, negative = inhibition) at 10uM” value was 7.77%.
Turning to `O=C1CSC(c2cccnc2)N1c1cccc(Cl)c1` (stereo not shown), the “hERG current change (%, negative = inhibition) at 10uM” value is on record as -1.13%.
For the compound `O=C(Nn1c(-c2ccc(F)cc2)nc2ccccc2c1=O)C1CCCCC1`, the “hERG current change (%, negative = inhibition) at 10uM” value is on record as -1.29%.
Regarding `O=C1C(Cl)=C(Nc2ccccc2O)C(=O)N1CCc1ccccc1`, the “hERG current change (%, negative = inhibition) at 10uM” value worked out at 32.8%.
Regarding `CCOc1ccc2c(c1)c1nnc(SCC(=O)N3CCCCC3C)nc1n2C` (stereo not shown), the “hERG current change (%, negative = inhibition) at 10uM” value was -33.6%.
Turning to `CSCCC(NC(=O)C1CCC(C)CC1)C(=O)NCCN1CCOCC1` (stereo not shown), the “hERG current change (%, negative = inhibition) at 10uM” value was 15.3%.
Consider `CC(C)n1nc(C(=O)Nc2nc3ccc(S(C)(=O)=O)cc3s2)c2ccccc2c1=O`, for which the “hERG current change (%, negative = inhibition) at 10uM” value was determined as 3.79%.
On to `COc1ccc(C(=O)Nc2ccc(C)cn2)cc1S(=O)(=O)N1CCCc2ccccc21`, for which the “hERG current change (%, negative = inhibition) at 10uM” value was 1.6%.
The figure for `O=C(CN1CCN(c2ccc(F)cc2)CC1)OCc1ccccc1` is -41.7%; for `COc1cc(C(=O)NCc2nnc(SCC(=O)N3CCCCC3)o2)cc(OC)c1OC` it is 7.47%; for `CCOC(=O)Cc1nc2cc(Cl)ccc2o1` it is 10.7%.
With `C=CCOc1c(Cl)cc(CNc2ccc3[nH]c(=O)[nH]c3c2)cc1OC`, the “hERG current change (%, negative = inhibition) at 10uM” value is -22.9%.
The figure for `CCOc1ccccc1N=C1NC(=O)CS1` is -7.25%.
As for `CCC(=O)Nc1cccc(NC(=O)CSc2nnnn2C)c1`, the “hERG current change (%, negative = inhibition) at 10uM” value was -44.1%.
On to `Cc1cccc(N2CCN(C(=O)c3c(-c4ccccc4Cl)noc3C)CC2)c1C`, for which the “hERG current change (%, negative = inhibition) at 10uM” value is 10.5%.
With `CSc1c(C#N)c(N)c(C#N)c2c1COC(C)(C)C2`, the “hERG current change (%, negative = inhibition) at 10uM” value was -9.21%.
Regarding `O=C(CSc1nnc(-c2ccncc2)o1)c1cccc([N+](=O)[O-])c1`, the “hERG current change (%, negative = inhibition) at 10uM” value was -4.67%.
Consider `CCCOc1ccc(-c2nnc(N)s2)cc1`, for which the “hERG current change (%, negative = inhibition) at 10uM” value is 6.87%.
Turning to `O=C(Cc1ccc(-c2ccccc2)cc1)NCCN1CCOCC1`, the “hERG current change (%, negative = inhibition) at 10uM” value is 0.566%.
Consider `CCOc1cc(NC(=S)NC)c(OCC)cc1NC(=O)c1cccs1`, for which the “hERG current change (%, negative = inhibition) at 10uM” value was -1.16%.
As to `CCOC(=O)c1sc(-c2ccc(OC)cc2)cc1N`, the “hERG current change (%, negative = inhibition) at 10uM” value is -3.55%.
